From article PMC4336329 (PLoS ONE, 2015)
The campaign covered roughly 310,000 compounds. About 2,200 (0.71%) showed an effect of 50% or more. The effect is printed as a negative number. This is one part of the list.

Molecular target: human ether-à-go-go-related gene (hERG) potassium channel (human, UniProt Q12809)
Assay: primary screen, population patch clamp on CHO cells stably expressing hERG

human ether-à-go-go-related gene (hERG) potassium channel, sequence (Q12809 whole entry, looked up): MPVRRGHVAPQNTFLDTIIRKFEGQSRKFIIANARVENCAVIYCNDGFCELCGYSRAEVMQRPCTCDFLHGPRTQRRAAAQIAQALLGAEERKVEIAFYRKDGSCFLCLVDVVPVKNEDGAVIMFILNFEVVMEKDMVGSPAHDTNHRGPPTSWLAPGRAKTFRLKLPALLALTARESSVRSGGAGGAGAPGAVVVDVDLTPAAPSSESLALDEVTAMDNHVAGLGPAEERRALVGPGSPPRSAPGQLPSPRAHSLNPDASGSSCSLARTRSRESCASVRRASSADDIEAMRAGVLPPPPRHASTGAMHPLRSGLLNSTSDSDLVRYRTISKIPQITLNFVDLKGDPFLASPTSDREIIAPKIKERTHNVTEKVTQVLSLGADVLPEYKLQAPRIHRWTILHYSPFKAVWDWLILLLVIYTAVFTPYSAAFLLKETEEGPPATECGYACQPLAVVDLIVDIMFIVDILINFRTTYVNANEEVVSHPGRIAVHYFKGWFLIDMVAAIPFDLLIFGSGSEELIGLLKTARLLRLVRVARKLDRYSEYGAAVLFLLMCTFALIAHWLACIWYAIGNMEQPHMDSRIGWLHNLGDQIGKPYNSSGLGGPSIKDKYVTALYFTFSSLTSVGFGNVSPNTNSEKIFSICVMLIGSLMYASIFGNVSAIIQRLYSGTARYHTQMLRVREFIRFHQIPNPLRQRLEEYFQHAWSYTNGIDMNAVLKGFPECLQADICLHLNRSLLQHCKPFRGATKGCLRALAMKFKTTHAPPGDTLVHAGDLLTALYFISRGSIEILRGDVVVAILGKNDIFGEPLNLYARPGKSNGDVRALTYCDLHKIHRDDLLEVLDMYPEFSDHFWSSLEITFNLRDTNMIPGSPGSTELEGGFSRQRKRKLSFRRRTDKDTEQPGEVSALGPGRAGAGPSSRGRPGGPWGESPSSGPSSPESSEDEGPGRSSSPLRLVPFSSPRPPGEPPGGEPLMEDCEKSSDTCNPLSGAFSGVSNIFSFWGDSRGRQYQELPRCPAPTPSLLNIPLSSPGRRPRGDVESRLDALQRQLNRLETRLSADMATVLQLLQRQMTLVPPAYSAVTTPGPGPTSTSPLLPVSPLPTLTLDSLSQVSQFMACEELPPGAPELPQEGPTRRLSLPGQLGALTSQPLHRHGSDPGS

| SMILES | hERG current change (%, negative = inhibition) at 1uM [%] |
| --- | --- |
| O=C(C1CCC1)N1CCN(S(=O)(=O)c2ccc(Br)cc2Cl)CC1 | 8.55 |
| Cc1cccc(OP(=O)(NCc2ccccc2)Oc2cccc(C)c2)c1 | 5.39 |
| Cc1ccc(S(=O)(=O)N2CCOC2CNC(=O)C(=O)NCc2ccccc2)cc1 (centres unmarked) | 10.1 |
| O=C(NNC(=O)c1ccc(Cl)c(S(=O)(=O)Nc2ccc(Cl)cc2)c1)c1ccc(=O)[nH]c1 | 14.5 |
| O=C(Nc1ccccc1)c1ccccc1OCC(O)CN1C(=O)c2ccccc2S1(=O)=O (centres unmarked) | 6.06 |
| O=c1[nH][nH]c(C(F)(F)F)c1C=Nc1ccccc1 | 12.5 |
| O=C(NCCN1CCOCC1)c1ccc(NC(=O)C2COc3ccccc3O2)cc1 (centres unmarked) | 13.7 |
| O=C(C1CCCN(S(=O)(=O)c2ccc(Cl)cc2)C1)N(Cc1cccs1)C1CC1 (centres unmarked) | 8.28 |
| O=C1CCC(C(=O)NCCCn2ccnc2)N1 (centres unmarked) | 12.4 |
| COc1cc2c(cc1OC)CN(C(=O)Nc1ccccc1)CC2 | 14.9 |
| O=C(CS(=O)(=O)c1ccccc1)N1CCc2ccccc21 | 1.57 |
| O=C(CSc1nnc(-c2cccnc2)o1)NNC(=O)c1ccc(Br)cc1 | 10.5 |
| O/N=C(\c1ccc(Cl)cc1)c1ncc(C(F)(F)F)cc1Cl | 14.2 |
| O=C(OCc1ccccc1)C1CCCN1C(=O)c1cccs1 (centres unmarked) | 1.6 |
| COc1ccc(/C=C(\NC(=O)c2ccc([N+](=O)[O-])cc2)C(=O)NCCCN2CCOCC2)cc1 | -41 |
| CCCCn1c(SCC(=O)NCc2ccc(OC)c(C(=O)O)c2)nc2cc(S(N)(=O)=O)ccc21 | 18.3 |
| COc1ccc(NC(=O)c2cc3c(CO)cnc(C)c3oc2=Nc2cc(OC)cc(OC)c2)cc1 | 22.5 |
| CCc1ccc(NC(=O)C(C)OC(=O)c2cc(=O)[nH]c3ccc(S(=O)(=O)Nc4ccc(F)cc4)cc23)cc1 (centres unmarked) | 7.45 |
| CCOC(=O)CSc1nnc(-c2c[nH]c3ccccc23)o1 | 9.76 |
| O=[N+]([O-])c1ccc(N2CCN(c3cccc(Cl)c3)CC2)cn1 | -59.8 |
| CCc1ccc(CNCCc2ccccc2F)cc1 | 6.1 |
| Cc1cc(OC(=O)c2ccccc2C(F)(F)F)c([N+](=O)[O-])c(=O)[nH]1 | 7.25 |
| O=C(NCCc1ccncc1)Nc1ccccc1 | -1.1 |

| SMILES | hERG current change (%, negative = inhibition) at 1uM [%] |
| --- | --- |
| CCOc1cccc(C2CC(=O)Nc3cc(OC)c(OC)cc32)c1 (centres unmarked) | 7.06 |
| Cn1c(N)c(C(=O)COC(=O)c2ccc(Cl)nc2)c(=O)n(C)c1=O | 19.6 |
| COc1ccc(S(=O)(=O)N2CCC(Cc3ccccc3)CC2)cc1NC(C)=O | 14.1 |
| Cc1cc(-c2ccc(S(=O)(=O)N3CCN(c4cccc(C)c4C)CC3)s2)on1 | 3.15 |
| CCc1nnc(NC(=O)Cc2ccc(OCc3c(C)noc3C)cc2)s1 | 11.3 |
| CC(=O)NS(=O)(=O)c1ccc(NC(=S)NC(=O)C(C)(C)C)cc1 | -7.65 |
| CCc1ccccc1OCC(=O)Nc1ccc(C)c(S(=O)(=O)N2CCCCCC2)c1 | 2.53 |
| Cc1ccc(CNC(=O)c2cncc(Br)c2)cc1 | 13.1 |
| CC(=O)/C(C#N)=C1\NC(=O)C(Cc2ccccc2Cl)S1 (centres unmarked) | 4.8 |
| CCCC(=O)NC(=S)Nc1ccc(N2CCOCC2)c(Cl)c1 | -12.1 |
| Cn1cccc1C1C(C#N)=C(N)OC2=C1C(=O)CC(C)(C)C2 (centres unmarked) | 7.78 |
| O=C(Cc1ccc(Cl)c(Cl)c1)Nc1cccc2ncccc12 | 10.5 |
| O=c1c2cnn(-c3ccccc3)c2nnn1Cc1ccccn1 | -0.73 |
| COC(=O)c1c(-c2c(Cl)cccc2Cl)noc1NC(=O)NN1CCOCC1 | 8.64 |
| CCC(Sc1nnnn1-c1ccccc1)C(=O)NC(C)c1ccccc1 (centres unmarked) | 9.25 |
| CC1(c2nnc(-c3ccccc3)o2)CC(c2ccc([N+](=O)[O-])cc2)=NO1 (centres unmarked) | 9.14 |
| Clc1ccc(-n2nnnc2-c2ccccc2)cc1 | 9.83 |
| CCN1CCN(C(=O)CN(c2cccc(Br)c2)S(=O)(=O)c2ccccc2)CC1 | 0.897 |
| COc1ccc(-n2c(C)c(C)c3c(NCCN(C)C)ncnc32)cc1 | 1.86 |
| COc1cc(CC(=O)OCC(=O)Nc2cc(S(=O)(=O)N3CCCC3)ccc2Cl)cc(OC)c1OC | 2.72 |
| CSc1nc2c(c(=O)[nH]1)C(c1ccc(Cl)cc1)CC(=O)N2 (centres unmarked) | 20.4 |
| COC(=O)c1cc(-c2ccc(C)cc2)n[nH]1 | 4.05 |
| O=C(/C(=C/O)N=Nc1ccccc1)c1ccco1 | 17.8 |

| SMILES | hERG current change (%, negative = inhibition) at 1uM [%] |
| --- | --- |
| CC(=O)Oc1ccc(C(=O)N2c3ccccc3NC(=O)C2C)cc1 (centres unmarked) | 16.4 |
| Cc1ccc2c(c1)C(c1ccccc1)=NCC(=O)N2C | 8.53 |
| O=C(CCNC(=O)c1ccc(Cl)cc1)Nc1c(F)c(F)cc(F)c1F | 12.8 |
| c1nc(Nc2ccc(N3CCOCC3)cc2)c2ccsc2n1 | 8.37 |
| COc1ccc(N=N/C(=C\O)C(=O)c2ccco2)cc1 | 8.78 |
| COCCCNC(=O)Cn1c(=O)n(CC(=O)N2CCCCC2)c(=O)c2sccc21 | 9.18 |
| COCCNC(=O)C1CC(c2cccc([N+](=O)[O-])c2)=NO1 (centres unmarked) | 17.3 |
| COC(=O)c1ccc2c(=O)n(CCCN3CCOCC3)c(=S)[nH]c2c1 | -5.6 |
| COc1ccc2c(C)cc(SCC(=O)Nc3cccnc3Cl)nc2c1 | 13.7 |
| O=C(NCc1ccccc1)C(c1cccnc1)N(C(=O)c1csnn1)c1ccc(F)cc1 (centres unmarked) | 3.26 |
| O=C(Nc1ccc(Cl)c(C(F)(F)F)c1)NC1CC2CCCC(C1)N2Cc1ccccc1 (centres unmarked) | -8.92 |
| COc1ccc(NS(=O)(=O)c2cccc3nsnc23)cc1Cl | 17.2 |
| CN(C(=O)COC(=O)C1COc2ccccc2O1)c1c(N)n(Cc2ccccc2)c(=O)[nH]c1=O (centres unmarked) | 6.48 |
| O=c1c2ccccc2[nH]c2ccc(F)cc12 | 14.2 |
| Clc1cccc(Nc2ncnc3ccc(Br)cc23)c1 | 3.03 |
| COc1cc(C(=O)N2CCN(C)C(C)C2)ccc1OC1CCN(C(C)=O)CC1 (centres unmarked) | 7.33 |
| COc1ccccc1NC(=O)c1nnn(Cc2ccccc2)c1NC(C)=O | 7.48 |
| O=c1c2ccccc2oc2nc(C3CCCCC3)n(Cc3ccco3)c(=O)c12 | -0.854 |
| Cc1cc(C)c[n+](C[n+]2cc(C)cc(C)c2)c1.[Br-] | 8.02 |
| COc1ccc2nc(NC(=O)c3ccc(-c4cccc([N+](=O)[O-])c4)o3)sc2c1 | 17.7 |
| CN(C(=S)Nc1ccccc1)c1ccccc1 | 4.13 |
| COc1ccccc1NC(=O)c1cccc(N2C(=O)C3C4C=CC(C4)C3C2=O)c1 (centres unmarked) | 7.13 |
| CCN1CCc2c(sc(NC(=O)c3ccc(S(=O)(=O)N4CCOCC4)cc3)c2C(=O)OC)C1.Cl | -4.77 |

| SMILES | hERG current change (%, negative = inhibition) at 1uM [%] |
| --- | --- |
| O=C(c1ccccc1[N+](=O)[O-])N1CCCN(C(=O)c2ccccc2[N+](=O)[O-])CC1 | -6.88 |
| O=C(Nc1ccnn1C1CCN(C2CCC2)CC1)c1ccccc1Cl | -28.4 |
| COC(=O)c1ccc(C(=O)OC)c(NC(=O)COC(=O)C2CC2C)c1 (centres unmarked) | 8.92 |
| COc1cccc(-n2nnnc2SCC(=O)Nc2cccc(C)n2)c1 | 9.94 |
| O=C(N/N=C/c1cccc(O)c1)c1cc(-c2ccc3c(c2)OCO3)n[nH]1 | 13.8 |
| COc1ccc(-n2nnnc2-c2nc3ccccc3s2)cc1 | -12.8 |
| O=C(Nc1ccc(O)c(-c2nc3ccccc3o2)c1)C1(c2ccc(Cl)cc2)CCCC1 | 6.46 |
| Cc1ccc(C(=O)Nc2nnc(C)s2)o1 | 2.72 |
| O=C(NCc1ccccn1)c1ccc(Br)s1 | -3.89 |
| C/C(=N/NC(=O)c1ccco1)c1cccc(NC(=O)c2ccc(C)o2)c1 | -8.71 |
| OCC#Cc1ncc(C(F)(F)F)cc1Cl | 14.6 |
| COc1nc(N(CC(N)=O)S(=O)(=O)c2ccccc2)nc(C)c1Cl | 10.1 |
| CN1C(=O)N(C)c2ccc(Br)c3cccc1c23 | 12.6 |
| OCC1(Cc2ccccc2F)CCCN(CC2CCCCC2)C1 (centres unmarked) | 0.985 |
| CCc1nc2cc(Cl)c(Cl)cc2nc1CC | 14.3 |
| CN(CC(=O)Nc1ccc2c(c1)OCCO2)S(=O)(=O)c1ccc(F)cc1 | 3.63 |
| Cc1cccc(C)c1NC(=O)CN.Cl | 5.9 |
| Cc1ccc(NC(=O)COC(=O)CCc2nc3ccccc3c(=O)[nH]2)c(Br)c1 | 8.08 |
| Cc1cc(C)c(-c2c(O)c3cccnc3n(C)c2=O)c(C)c1 | 22.3 |
| O=C(CNc1cccc(F)c1)N1CCc2ccccc2C1 | 15.2 |
